Results are given in words; binding and its absence hold for the method and conditions named. Some entries that bind do so weakly or less than the wild type. Tags and fused reporters may be left off the sequences shown.
T1: Arabidopsis MKKK20, GAL4 DNA-binding domain bait in pDEST32 (Arabidopsis thaliana) (UniProt Q9SND6)
T1 sequence: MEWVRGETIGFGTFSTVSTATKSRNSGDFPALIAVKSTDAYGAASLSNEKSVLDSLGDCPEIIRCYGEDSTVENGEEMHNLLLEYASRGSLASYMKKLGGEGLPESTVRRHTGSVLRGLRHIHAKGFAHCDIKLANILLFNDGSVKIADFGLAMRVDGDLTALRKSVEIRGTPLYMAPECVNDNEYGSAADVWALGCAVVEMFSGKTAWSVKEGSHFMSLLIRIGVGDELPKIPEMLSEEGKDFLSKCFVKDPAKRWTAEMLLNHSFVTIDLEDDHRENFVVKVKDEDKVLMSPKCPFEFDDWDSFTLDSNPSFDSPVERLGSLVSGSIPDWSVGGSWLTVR

B1: Arabidopsis MKK3, GAL4-activating domain prey in pDEST22 (enzyme, UniProt O80396 1-520)
chain: MAALEELKKKLSPLFDAEKGFSSSSSLDPNDSYLLSDGGTVNLLSRSYGVYNFNELGLQKCTSSHVDESESSETTYQCASHEMRVFGAIGSGASSVVQRAIHIPNHRILALKKINIFEREKRQQLLTEIRTLCEAPCHEGLVDFHGAFYSPDSGQISIALEYMNGGSLADILKVTKKIPEPVLSSLFHKLLQGLSYLHGVRHLVHRDIKPANLLINLKGEPKITDFGISAGLENSMAMCATFVGTVTYMSPERIRNDSYSYPADIWSLGLALFECGTGEFPYIANEGPVNLMLQILDDPSPTPPKQEFSPEFCSFIDACLQKDPDARPTADQLLSHPFITKHEKERVDLATFVQSIFDPTQRLKDLADMLTIHYYSLFDGFDDLWHHAKSLYTETSVFSFSGKHNTGSTEIFSALSDIRNTLTGDLPSEKLVHVVEKLHCKPCGSGGVIIRAVGSFIVGNQFLICGDGVQAEGLPSFKDLGFDVASRRVGRFQEQFVVESGDLIGKYFLAKQELYITNLD
B2: Arabidopsis MPK18, GAL4-activating domain fusion (enzyme, UniProt Q9C5C0 1-615)
chain: MQQNQVKKGTKEMEFFTEYGDANRYRILEVIGKGSYGVVCAAIDTHTGEKVAIKKINDVFEHISDALRILREVKLLRLLRHPDIVEIKSIMLPPSKREFKDIYVVFELMESDLHQVIKANDDLTREHHQFFLYQMLRALKFMHTANVYHRDLKPKNILANANCKLKVCDFGLARVAFNDTPTTVFWTDYVATRWYRAPELCGSFFSKYTPAIDVWSIGCIFAEVLTGKPLFPGKSVVHQLELITDLLGTPKSETISGVRNDKARKYLTEMRKKNPVTFSQKFSKADPLALRLLQRLLAFDPKDRPTPAEALADPYFKGLSKIEREPSSQQISKMEFEFERRRLTKDDIRELIYREILEYHPQLLKDYMSGSEGSNFVYPSAIGHLRQQFTYLEENSSRNGPVIPLERKHASLPRSTVHSTVVHSTSQPNLGATDSRRVSFEPSKNGASSAGHPSTSAYPTKSIGPPPRVPPSGRPGRVVESSVSYENGRNLKEAYFRSAVSSPHCYFRPNTMTNPENRNIEASSFPPKPQNPVHQFSPTEPPAATTNQADVETMNHPNPYFQPQLPKTDQLNNNTHMAIDAKLLQAQSQFGPAGAAAVAVAAHRNIGTISYSAAS
B3: Arabidopsis MKK1, GAL4-activating domain prey in pDEST22 (enzyme, UniProt Q94A06 1-354)
chain: MNRGSLCPNPICLPPLEQSISKFLTQSGTFKDGDLRVNKDGIQTVSLSEPGAPPPIEPLDNQLSLADLEVIKVIGKGSSGNVQLVKHKLTQQFFALKVIQLNTEESTCRAISQELRINLSSQCPYLVSCYQSFYHNGLVSIILEFMDGGSLADLLKKVGKVPENMLSAICKRVLRGLCYIHHERRIIHRDLKPSNLLINHRGEVKITDFGVSKILTSTSSLANSFVGTYPYMSPERISGSLYSNKSDIWSLGLVLLECATGKFPYTPPEHKKGWSSVYELVDAIVENPPPCAPSNLFSPEFCSFISQCVQKDPRDRKSAKELLEHKFVKMFEDSDTNLSAYFTDAGSLIPPLAN
B4: Arabidopsis MKK2, GAL4-activating domain prey in pDEST22 (enzyme, UniProt Q9S7U9 1-363)
chain: MKKGGFSNNLKLAIPVAGEQSITKFLTQSGTFKDGDLRVNKDGVRIISQLEPEVLSPIKPADDQLSLSDLDMVKVIGKGSSGVVQLVQHKWTGQFFALKVIQLNIDEAIRKAIAQELKINQSSQCPNLVTSYQSFYDNGAISLILEYMDGGSLADFLKSVKAIPDSYLSAIFRQVLQGLIYLHHDRHIIHRDLKPSNLLINHRGEVKITDFGVSTVMTNTAGLANTFVGTYNYMSPERIVGNKYGNKSDIWSLGLVVLECATGKFPYAPPNQEETWTSVFELMEAIVDQPPPALPSGNFSPELSSFISTCLQKDPNSRSSAKELMEHPFLNKYDYSGINLASYFTDAGSPLATLGNLSGTFSV
B5: Arabidopsis MKK4, GAL4-activating domain prey in pDEST22 (enzyme, UniProt O80397 1-366)
chain: MRPIQSPPGVSVPVKSRPRRRPDLTLPLPQRDVSLAVPLPLPPTSGGSGGSSGSAPSSGGSASSTNTNSSIEAKNYSDLVRGNRIGSGAGGTVYKVIHRPSSRLYALKVIYGNHEETVRRQICREIEILRDVNHPNVVKCHEMFDQNGEIQVLLEFMDKGSLEGAHVWKEQQLADLSRQILSGLAYLHSRHIVHRDIKPSNLLINSAKNVKIADFGVSRILAQTMDPCNSSVGTIAYMSPERINTDLNQGKYDGYAGDIWSLGVSILEFYLGRFPFPVSRQGDWASLMCAICMSQPPEAPATASPEFRHFISCCLQREPGKRRSAMQLLQHPFILRASPSQNRSPQNLHQLLPPPRPLSSSSSPTT
B6: Arabidopsis MKK5, GAL4-activating domain prey in pDEST22 (enzyme, UniProt Q8RXG3 1-348)
chain: MKPIQSPSGVASPMKNRLRKRPDLSLPLPHRDVALAVPLPLPPPSSSSSAPASSSAISTNISAAKSLSELERVNRIGSGAGGTVYKVIHTPTSRPFALKVIYGNHEDTVRRQICREIEILRSVDHPNVVKCHDMFDHNGEIQVLLEFMDQGSLEGAHIWQEQELADLSRQILSGLAYLHRRHIVHRDIKPSNLLINSAKNVKIADFGVSRILAQTMDPCNSSVGTIAYMSPERINTDLNHGRYDGYAGDVWSLGVSILEFYLGRFPFAVSRQGDWASLMCAICMSQPPEAPATASQEFRHFVSCCLQSDPPKRWSAQQLLQHPFILKATGGPNLRQMLPPPRPLPSAS
B7: Arabidopsis MKK6, GAL4-activating domain prey in pDEST22 (enzyme, UniProt Q9FJV0 1-356)
chain: MVKIKSNLKQLKLSVPAQESPISSFLTASGTFHDGDFLLNQKGLRLTSDEKQSRQSDSKELDFEITAEDLETVKVIGKGSGGVVQLVRHKWVGKFFAMKVIQMNIQEEIRKQIVQELKINQASSQCPHVVVCYHSFYHNGAFSLVLEYMDRGSLADVIRQVKTILEPYLAVVCKQVLLGLVYLHNERHVIHRDIKPSNLLVNHKGEVKISDFGVSASLASSMGQRDTFVGTYNYMSPERISGSTYDYSSDIWSLGMSVLECAIGRFPYLESEDQQNPPSFYELLAAIVENPPPTAPSDQFSPEFCSFVSACIQKDPPARASSLDLLSHPFIKKFEDKDIDLGILVGTLEPPVNYLR
B8: Arabidopsis MKK7, GAL4-activating domain prey in pDEST22 (enzyme, UniProt Q9LPQ3 1-307)
chain: MALVRKRRQINLRLPVPPLSVHLPWFSFASSTAPVINNGISASDVEKLHVLGRGSSGIVYKVHHKTTGEIYALKSVNGDMSPAFTRQLAREMEILRRTDSPYVVRCQGIFEKPIVGEVSILMEYMDGGNLESLRGAVTEKQLAGFSRQILKGLSYLHSLKIVHRDIKPANLLLNSRNEVKIADFGVSKIITRSLDYCNSYVGTCAYMSPERFDSAAGENSDVYAGDIWSFGVMILELFVGHFPLLPQGQRPDWATLMCVVCFGEPPRAPEGCSDEFRSFVDCCLRKESSERWTASQLLGHPFLRESL
B9: Arabidopsis MKK8, GAL4-activating domain prey in pDEST22 (enzyme, UniProt Q9M8J5 1-309)
chain: MVMVRDNQFLNLKLSPIQAPTTIPPCRFPIIPATKVSATVSSCASNTFSVANLDRISVLGSGNGGTVFKVKDKTTSEIYALKKVKENWDSTSLREIEILRMVNSPYVAKCHDIFQNPSGEVSILMDYMDLGSLESLRGVTEKQLALMSRQVLEGKNYLHEHKIVHRDIKPANLLRSSKEEVKIADFGVSKIVVRSLNKCNSFVGTFAYMSPERLDSEADGVTEEDKSNVYAGDIWSFGLTMLEILVGYYPMLPDQAAIVCAVCFGEPPKAPEECSDDLKSFMDCCLRKKASERWTASQLLNHPFLLHQD
B10: Arabidopsis MKK9, GAL4-activating domain prey in pDEST22 (enzyme, UniProt Q9FX43 1-310)
chain: MALVRERRQLNLRLPLPPISDRRFSTSSSSATTTTVAGCNGISACDLEKLNVLGCGNGGIVYKVRHKTTSEIYALKTVNGDMDPIFTRQLMREMEILRRTDSPYVVKCHGIFEKPVVGEVSILMEYMDGGTLESLRGGVTEQKLAGFAKQILKGLSYLHALKIVHRDIKPANLLLNSKNEVKIADFGVSKILVRSLDSCNSYVGTCAYMSPERFDSESSGGSSDIYAGDIWSFGLMMLELLVGHFPLLPPGQRPDWATLMCAVCFGEPPRAPEGCSEEFRSFVECCLRKDSSKRWTAPQLLAHPFLREDL

Molecular target: T1, Arabidopsis MKKK20, GAL4 DNA-binding domain bait in pDEST32 (Arabidopsis thaliana)
Assay: two-hybrid; directed pairwise test, ProQuest system, yeast strain MaV203; DBD bait and AD prey introduced pairwise; HIS3 and URA3 activation scored by visual comparison to the controls

| Binder | binding |
| --- | --- |
| B1 | binds |
| B2 | binds |
| B3 | no binding |
| B4 | no binding |
| B5 | no binding |
| B6 | no binding |
| B7 | no binding |
| B8 | no binding |
| B9 | no binding |
| B10 | no binding |

— article PMC5550695
